PubChem BioAssay AID624296 (National Center for Advancing Translational Sciences (NCATS), 2012)
The whole screen tested about 350,000 compounds, of which about 9,900 (2.8%) were called active. This list was built around the results that the source calls inconclusive (neither active nor inactive); the mix of calls is not that of the screen. Calls follow the shape of the dose curve; as a rule, active = well fitted activation curve with a large enough effect; inconclusive = small, poorly fitted or top-dose-only effect; inactive = no such curve, though single readings can be large or run the other way. Potencies of inconclusive entries are left out as doubtful fits.

experiment: A quantitative high throughput screen for small molecules that induce DNA re-replication in MCF 10a normal breast cells.; also: nearly all actives have a fitted effect of over 50% in size; as to activity, positive = re-replication: % of control where 0% means no effect; settings: MCF 10A DNA re-replication, Hoechst nuclear intensity, 48 h; activity, positive = re-replication: at 46.1 µM (top of the series)
Potency is read from the fitted curve at half-maximal effect; tags tell the direction and shape of the fitted curve.

| Structure (SMILES) | activity, positive = re-replication | Potency |
| --- | --- | --- |
| COc1cccc(C2=NOC(C(=O)Nc3cc(C)on3)C2)c1 (centres undefined) | inactive: 12.2% | – |
| CCN(CC)CCNC(=O)c1ccc(NC(=O)/C=C/c2ccc3ccccc3n2)cc1 | – | inconclusive [activator, single point] |
| O=C(CSc1nc(-c2ccccc2)nc2ccccc12)Nc1cccc(C(=O)O)c1 | – | inconclusive [activator, single point] |
| CC[C@]12c3[nH]c4ccc(OC)cc4c3CCN1C(=O)C(CC(=O)NC/C=C(\C)CCC=C(C)C)C[C@@H]2C(=O)N1CCN(C(=O)C2CC2)CC1 (some centres undefined) | inactive: 2.98% | – |
| CCC1CCCCN1CCCNC(=O)Cn1ncn2nc(-c3ccc(OC)cc3)cc2c1=O (centres undefined) | – | inconclusive [activator, partial curve, poor fit] |
| CCn1c(C)nc2cc(C(=O)N/N=C/c3cccc(O)c3O)ccc21 | – | inconclusive [activator, partial curve, poor fit] |
| COc1ccc(OCCCc2c(C)n[nH]c2C)cc1 | inactive: 1.37% | – |
| Cc1ccc(Cc2nc3ccccc3[nH]2)cc1 | inactive: -9.04% | – |
| COc1ccc(CCN2C(=O)NC(NC(C)=O)(C(F)(F)F)C2=O)cc1OC (centres undefined) | inactive: 3.2% | – |
| O=S(=O)(N1CCOCC1)n1c(Cc2ccccc2)nc2ccccc21 | – | inconclusive [activator, single point] |
| Cc1ccc(OCC(=O)N2N=C(c3ccncc3)CC2(O)C(F)(F)F)cc1C (centres undefined) | – | inconclusive [activator, single point] |
| CCOC(=O)c1ccc(NC(=O)c2nc[nH]c2C(=O)N2CCc3ccccc3C2)cc1 | inactive: -9.08% | – |
| N#Cc1ccc(C2=CC(=O)C[C@H](c3ccc(F)cc3)C2)cc1 | – | inconclusive [activator, single point] |
| Cc1ccc(C)c(NC(=O)C(NCC(C)(C)N2CCOCC2)c2ccccc2)c1 (centres undefined) | – | inconclusive [activator, partial curve, poor fit] |
| CCOC(=O)C1(CCCc2ccccc2)CCN(Cc2cn(CC)nc2C)CC1 | – | inconclusive [activator, single point] |
| CCc1nc2ccccc2c(C(=O)Nc2cccc(C)c2)c1C | – | inconclusive [activator, single point] |
| COc1cc2cc(c1Cl)N(C)C(=O)CC(OC(=O)C(C)N(C)C(C)=O)C1(C)OC1C(C)C1CC(O)(NC(=O)O1)C(OC)C=CC=C(C)C2 (centres undefined) | inconclusive: 89.7% [activator] | – |
| O=C(NCCc1cn[nH]c1)C1CCC(=O)N(CCc2cccc(F)c2)C1 (centres undefined) | – | inconclusive [activator, partial curve, poor fit] |
| O=C(NCCc1c[nH]c2ccccc12)C(=O)NCC1OCCN1S(=O)(=O)c1ccc(Cl)cc1 (centres undefined) | – | inconclusive [activator, single point] |
| CC(C)CC(/C(O)=C(\C#N)c1nc2ccccc2[nH]1)N1C(=O)c2ccccc2C1=O (centres undefined) | – | inconclusive [activator, single point] |
| COCCCNc1nc2ccccc2nc1NS(=O)(=O)c1cc(Cl)ccc1Cl | inactive: -8% | – |
| COCCNC(=O)CN1C(=O)COc2ccc(S(=O)(=O)N3CC(C)CC(C)C3)cc21 (centres undefined) | inactive: 0.281% | – |
| CCOC(=O)c1[nH]c2c(c1C)C(=O)CC(c1ccc(F)cc1)C2 (centres undefined) | – | inconclusive [activator, partial curve, poor fit] |

| Structure (SMILES) | activity, positive = re-replication | Potency |
| --- | --- | --- |
| O=C(c1c(F)cccc1F)N(C1CCCCC1)C1CCCCC1 | – | inconclusive [activator, partial curve, poor fit] |
| CS(=O)(=O)N1CCc2cc(C(=O)Nc3ccccc3)ccc21 | – | inconclusive [activator, single point] |
| CC(C)c1nnc(NC(=O)c2nc(S(=O)(=O)Cc3ccccc3)ncc2Cl)s1 | – | inconclusive [activator, partial curve, poor fit] |
| N#Cc1cccc(C(=O)Nc2ccc(S(=O)(=O)Nc3nccs3)cc2)c1 | – | inconclusive [activator, single point] |
| CC(C)(C)c1ccc(C(=O)Nc2ccc([N+](=O)[O-])cn2)cc1 | – | inconclusive [activator, single point] |
| CCCNC(=O)OC[C@H]1O[C@H](CCO/N=C(\C)CCN2CCc3nc(-c4ccccc4)c(-c4ccccc4)cc3C2)C=C[C@@H]1Oc1ccc(OC)cc1 | – | inconclusive [activator, partial curve] |
| Cc1cc(Cl)ccc1OCC(=O)NC(=S)Nc1ccc(Cl)cn1 | inactive: -0.342% | – |
| Cn1cc([N+](=O)[O-])c(C(=O)Nc2nccs2)n1 | – | active: 4.61 µM |
| O=C(CSc1nc2sc3c(c2c(=O)n1-c1ccccc1)CCCC3)NCc1ccco1 | – | inconclusive [activator, partial curve, poor fit] |
| Cn1c(=O)c2c(nc(SCc3ccccc3F)n2C)n(C)c1=O | inactive: 0.121% | – |
| COc1ccc(C(C)(C)C)cc1NC(=O)CCCn1c(=O)oc2ccccc21 | inactive: 17% | – |
| CCNc1ccc(Br)cc(C(=O)/C=C/c2c(Cl)cccc2Cl)c1=O | – | active: 23.1 µM |
| O=C(CNC(=O)c1ccccc1F)NCC(c1cccs1)N1CCOCC1 (centres undefined) | inactive: 8.95% | – |
| O=C(O)c1ccc(Nc2ccc(Cl)c(Cl)c2)c([N+](=O)[O-])c1 | inactive: 1.59% | – |
| O=C(NC(=S)Nc1ccc(N2CCCCC2)c(Cl)c1)c1ccc2c(c1)OCCO2 | – | active: 9.2 µM |
| O=C(N/C=C/c1ccco1)Nc1cccc(Cl)c1 | – | inconclusive [activator, partial curve, poor fit] |
| Cc1cc(C(=O)N/N=C/c2ccc(N3CCOCC3)cc2)c(C)o1 | – | inconclusive [activator, partial curve, poor fit] |
| CN(C)/C=C1\N=C(c2ccccc2)OC1=O | inactive: -7% | – |
| Cc1ccnn1-c1ccc(C(=O)NCC(c2ccco2)N2CCCC2)cc1 (centres undefined) | – | inconclusive [activator, single point] |
| O=C(/C=C/c1ccc(Cl)cc1)N(Cc1cccs1)C1CCS(=O)(=O)C1 (centres undefined) | – | inconclusive [activator, partial curve, poor fit] |
| O=C(CN1C(=O)c2ccccc2S1(=O)=O)N1CCN(c2cccc(Cl)c2)CC1 | inactive: -5.73% | – |
| CN1CCN(c2ccccc2NC(=O)c2ccc(-c3ccc(Cl)cc3Cl)o2)CC1 | – | inconclusive [activator, single point] |
| N#C/C(=C\c1ccccc1C(F)(F)F)C(=O)Nc1ccccc1F | – | inconclusive [activator, single point] |

| Structure (SMILES) | activity, positive = re-replication | Potency |
| --- | --- | --- |
| Cc1cc(-c2onc(C)c2C(=O)Nc2ccc(C(F)(F)F)cc2)no1 | inactive: 4.31% | – |
| NC(=O)[C@H]1CC2(CC(c3cccc(NC(=O)COc4ccc(Cl)cc4)c3)=NO2)CN1C(=O)Cc1ccc([N+](=O)[O-])cc1 (some centres undefined) | inactive: 9.85% | – |
| Cc1ccc2c(c1)N(C(=O)c1ccco1)C(C)(C)c1ssc(=S)c1-2 | inactive: -5.71% | – |
| Cc1noc(C)c1COc1ccccc1C(=O)Nc1cccc(S(=O)(=O)N(C)C)c1 | inactive: 4.76% | – |
| CCOC(=O)c1[nH]c(C)c(C(=O)N2CCc3ccccc32)c1C | – | active: 0.411 µM |
| Cc1ccc(C(=O)NC(=S)Nc2ccccc2C(F)(F)F)cc1C | – | inconclusive [activator, single point] |
| COc1ccc(OC)c(N/C=C/C(=O)c2ccc(OC)c(OC)c2)c1 | – | inconclusive [activator, single point] |
| Cc1ccc(S(=O)(=O)NCC(=O)N(CC(=O)NCC2CCCO2)Cc2ccc(Cl)cc2)cc1 (centres undefined) | inactive: -15.3% | – |
| CSc1ccc(CN(C)C(=O)C23CC4CC(CC(Cl)(C4)C2)C3)cc1 | – | inconclusive [activator, single point] |
| CCCC(=O)c1ccc(OCc2cn(CC(=O)c3ccc(O)cc3)nn2)cc1 | – | inconclusive [activator, partial curve, poor fit] |
| Cc1[nH]n(-c2nc(-c3cccc([N+](=O)[O-])c3)cs2)c(=O)c1C | inactive: 14.1% | – |
| CCOc1ccc(-c2nnc(N)s2)cc1 | – | inconclusive [activator, partial curve, poor fit] |
| COc1ccc(S(=O)(=O)N2CCOC23CCN(S(=O)(=O)c2cc(C)ccc2OC)CC3)cc1 | inactive: 1.68% | – |
| CC(C)(C)c1ccccc1N=Cc1ccc2ccccc2n1 | – | inconclusive [activator, partial curve, poor fit] |
| COCc1c(C(=O)N2CCN(Cc3ccc4c(c3)OCO4)CC2)oc2ccccc12 | inactive: 3.63% | – |
| CC1(C)Cc2c(C#N)c(NCCO)nc(-c3ccco3)c2CO1 | – | active: 23.1 µM |
| CCOC(=O)C(NC(C)=O)(Nc1ccc(S(=O)(=O)Nc2ncccn2)cc1)C(F)(F)F (centres undefined) | inactive: 0.127% | – |
| O=C(c1cc(-c2cccs2)on1)N1CCc2ccccc2C1 | – | inconclusive [activator, single point] |
| O=C1c2ccccc2C(=O)N1/N=C/c1ccc(O)c(O)c1 | – | inconclusive [activator, partial curve, poor fit] |
| CCCCCCSc1cc(-c2nc3ccc(Cl)cn3c2NCCCC)ccc1OC | inactive: 1.89% | – |
| Cc1cccc(CN2C(=O)/C(=C\c3ccc(C(=O)NCCN4CCOCC4)cc3)Sc3ccccc32)c1 | – | inconclusive [activator, single point] |
| Clc1ccc2[nH]c3c(c2c1)CCc1cn[nH]c1-3 | – | inconclusive [activator, single point] |
| CCOC(=O)CC(NC(=O)Cc1cccs1)c1ccccc1Cl (centres undefined) | inactive: -1.3% | – |
